{"source": "PubChem BioAssay AID463173", "about": "(ICCB-Longwood Screening Facility, Harvard Medical School, 2010)", "note": "Among all 52,000 compounds or so, about 4,300 (8.3%) were called active. Rule as the data show it: active = survival mostly below about 52% (no sharp cut-off); inactive = mostly above about 56%. Some of the results follow.", "data": [{"tested_on": "DeltatarO mutant", "test": "growth inhibition of S. aureus wild type versus tarO mutant, primary screen, teichoic acid synthesis inhibitors, RN4220, OD600 (AID 463173)", "conditions": "OD600, 18 h, stronger effect = lower value, screened at 18.75 µg/mL (by protocol)", "values": [{"smiles": "COc1ccc(-n2c(CC3C(=O)N(C)c4ccc(C)cc43)nc3ccccc3c2=O)cc1", "note": "(stereo unspecified)", "survival": "inactive: 99%"}, {"smiles": "CCc1ccc(NC(=O)CN(c2ccc(OC)cc2)S(=O)(=O)c2c(C)[nH]c(=O)[nH]c2=O)cc1", "survival": "inactive: 74%"}, {"smiles": "Cc1ccc(SCC(=O)Nc2ccccc2)cc1", "survival": "inactive: 100%"}, {"smiles": "Nc1nc(CN2CCCCC2)cs1", "survival": "inactive: 85%"}, {"smiles": "COc1cc(Cl)c(C)cc1NC(=O)c1ccc2c(Cl)c3c(nc2c1)CCC3", "survival": "inactive: 97%"}, {"smiles": "CCOc1cccc(CC(=O)N2CCc3c([nH]c4ccccc34)C2c2ccc(Cl)cc2)c1OCC", "note": "(stereo unspecified)", "survival": "inactive: 77%"}, {"smiles": "c1ccc(-n2c(SCCN3CCOCC3)nnc2-c2ccncc2)cc1", "survival": "inactive: 77%"}, {"smiles": "CC1CCN(C(=O)CSc2nc(-c3ccccc3)no2)CC1", "survival": "inactive: 115%"}, {"smiles": "CC(C)(C)n1nnnc1C(c1ccccn1)N1CCC(Cc2ccccc2)CC1", "note": "(stereo unspecified)", "survival": "inactive: 75%"}, {"smiles": "Cc1ccc2[nH]cc(NC(=O)NCCN(C)C)c(=O)c2c1", "survival": "inactive: 100%"}, {"smiles": "Cc1c(NS(=O)(=O)c2ccccc2)cc(C(C)C)c(O)c1S(=O)(=O)c1ccc(Cl)cc1", "survival": "inactive: 103%"}, {"smiles": "COc1ccc(C(c2c(O)cc(C)n(Cc3ccco3)c2=O)N2CCCCC2)cc1OC", "note": "(stereo unspecified)", "survival": "inactive: 93%"}, {"smiles": "Cc1ccc(CN2C(=O)C(O)(c3c[nH]c4ccccc34)c3cc(Cl)ccc32)cc1", "note": "(stereo unspecified)", "survival": "active: -3%"}, {"smiles": "COc1cccc(-c2nc(CS(=O)(=O)CC(=O)NCc3ccc(C)cc3)c(C)o2)c1", "survival": "inactive: 61%"}, {"smiles": "CCOc1cc(-c2nc3c(c(CC)nn3-c3ccccc3)c3cc(OC)c(OC)cc23)ccc1O", "survival": "inactive: 58%"}, {"smiles": "Cc1ccc2c(c1)NC(c1cccnc1)=NC(c1ccc(F)cc1)=N2", "survival": "inactive: 78%"}, {"smiles": "Cc1ccc(C)c(NC(=O)Cn2c(=O)n(Cc3ccco3)c(=O)c3oc4ccccc4c32)c1", "survival": "inactive: 59%"}, {"smiles": "COCCNC(=O)c1c(C)oc2nc(C)nc(N3CCOCC3)c12", "survival": "inactive: 91%"}, {"smiles": "COc1ccc(C2c3c(-c4c(C)cc(C)cc4O)n[nH]c3C(=O)N2Cc2ccco2)cc1", "note": "(stereo unspecified)", "survival": "active: 0%"}, {"smiles": "Cc1cccc(-c2cc3nc4c(c(N5CCN(Cc6ccc7c(c6)OCO7)CC5)n3n2)CCCC4)c1", "survival": "inactive: 100%"}, {"smiles": "CCOC(=O)c1cccc(NC(=O)c2ccc3c(Cl)c4c(nc3c2)CCC4)c1", "survival": "active: 41%"}, {"smiles": "O=C(NCCCN1CCN(c2ccc(F)cc2)CC1)Nc1ccc(Cl)cc1", "survival": "inactive: 72%"}, {"smiles": "COc1ccc(C(=O)c2cn(Cc3ccc(F)cc3)c3ccc(C)cc3c2=O)cc1", "survival": "active: 24%"}, {"smiles": "Cc1csc2nc(-c3cccc(NC(=O)c4ccccc4Cl)c3)cn12", "survival": "inactive: 109%"}, {"smiles": "Cc1ccc(-c2nc3ccccn3c2Nc2ccc3c(c2)OCO3)cc1", "survival": "inactive: 73%"}, {"smiles": "Cc1ccc(CNC(=O)CCc2c(C)nn(-c3ccc(N4CCCCC4)nn3)c2C)cc1", "survival": "inactive: 93%"}, {"smiles": "O=C(NC1CCCCCC1)C1CCN(C(=O)N2CCOc3ccccc32)CC1", "survival": "inactive: 76%"}, {"smiles": "Cc1cccc(OCC(=O)OCc2cc(=O)n3nc(C4CCCCC4)sc3n2)c1", "survival": "inactive: 85%"}, {"smiles": "CCOC(=O)C(CC)n1nc(C)n2c(cc3occc32)c1=O", "note": "(stereo unspecified)", "survival": "inactive: 116%"}, {"smiles": "COc1ccc(C(=O)COC(=O)c2cccc(NC(=O)c3ccc(OC)c(OC)c3)c2)cc1", "survival": "inactive: 61%"}, {"smiles": "O=C(C1CCCN(S(=O)(=O)Cc2ccccc2)C1)N1CCc2ccccc21", "note": "(stereo unspecified)", "survival": "inactive: 86%"}, {"smiles": "CCOc1ccc(CNC(=O)c2cc3ccccn3n2)cc1OC", "survival": "inactive: 74%"}, {"smiles": "Cn1c(=O)c2c(-c3cccc(Br)c3)n(CCO)cc2n(C)c1=O", "survival": "inactive: 83%"}, {"smiles": "CCN1CCN(c2oc(/C=C/c3ccccc3OC)nc2C#N)CC1", "survival": "inactive: 78%"}, {"smiles": "CN(Cc1ccccc1)C(=O)C1CCN(S(=O)(=O)Cc2ccccc2)CC1", "survival": "inactive: 58%"}, {"smiles": "O=c1c2cc3c(cc2nc2sc(Nc4ccc(F)c(Cl)c4)nn12)OCO3", "survival": "inactive: 158%"}, {"smiles": "Cc1nc(C)c(-c2ccc(SCC(=O)Nc3ccc(F)c(F)c3)nn2)s1", "survival": "inactive: 102%"}, {"smiles": "CC(C)(C)C(=O)NC1CCN(S(=O)(=O)c2ccccc2C(=O)O)CC1", "survival": "inactive: 75%"}, {"smiles": "COC(=O)C1=C(C)Nc2ncnn2C1c1ccncc1", "note": "(stereo unspecified)", "survival": "inactive: 86%"}, {"smiles": "CCOC(=O)/C=C(\\C)Nc1cc(-c2ccc(Cl)cc2)[nH]n1", "survival": "inactive: 68%"}, {"smiles": "Cc1ccc(NC(=O)c2cc(S(=O)(=O)N3CCCC(C)C3)cn2C)c(Br)c1", "note": "(stereo unspecified)", "survival": "inactive: 67%"}, {"smiles": "COc1cc(/C=C(\\C#N)c2nc3ccccc3n2C)cc(OC)c1OC", "survival": "active: 47%"}, {"smiles": "Nc1cccc(-c2cn3ccsc3n2)c1", "survival": "inactive: 81%"}, {"smiles": "CNC(=O)/C(C#N)=C/c1cn(CCOc2ccccc2)c2ccccc12", "survival": "inactive: 66%"}, {"smiles": "O=S(=O)(c1ccccc1)N1CCN(C2CCCCCCC2)CC1", "survival": "inactive: 89%"}, {"smiles": "COc1ccc(Cn2c(=O)c3cccnc3n(Cc3cccc(OC)c3)c2=O)cc1", "survival": "inactive: 67%"}, {"smiles": "O=C(NC1CC(=O)N(c2cccc(F)c2)C1)C1CC1", "note": "(stereo unspecified)", "survival": "inactive: 73%"}, {"smiles": "Cc1ccc(NC(=O)c2oc3ccccc3c2NC(=O)c2ccccc2C)cc1", "survival": "inactive: 79%"}, {"smiles": "CSc1nnc(NC(=O)Cc2coc3cc(C)ccc23)s1", "survival": "inactive: 71%"}, {"smiles": "Cc1ccc(-n2c(=O)c3ccc(C(=O)NCc4ccccc4Cl)cc3n(Cc3ccccc3F)c2=O)cc1", "survival": "inactive: 84%"}, {"smiles": "CCOC(=O)c1c(-c2ccc(C)cc2)csc1NC(=O)c1nc(SCC)ncc1Cl", "survival": "inactive: 84%"}, {"smiles": "CC1CCN(CCCNC(=O)c2cc(Sc3ccc(F)cc3)nc3ccccc23)CC1", "survival": "inactive: 68%"}, {"smiles": "CCc1ccc(CN(Cc2cn[nH]c2-c2ccc(OC)cc2)C(=O)Nc2ccc(C)c(F)c2)cc1", "survival": "inactive: 74%"}, {"smiles": "CC(C)(C)NS(=O)(=O)c1ccc(-c2nnc(SCC(=O)c3ccc(F)cc3)o2)cc1", "survival": "inactive: 70%"}, {"smiles": "N#Cc1nc(-c2ccc(COc3ccc(Cl)cc3)o2)oc1N1CCN(c2ccccc2)CC1", "survival": "inactive: 64%"}, {"smiles": "COc1ccccc1N1CCN(C(=O)c2cc3c(=O)n(Cc4ccco4)ccc3nc2C)CC1", "survival": "inactive: 80%"}, {"smiles": "Cc1ccc(NS(=O)(=O)c2c(C(=O)N3CCC(C)CC3)c(C)n(C)c2C)cc1Cl", "survival": "inactive: 126%"}, {"smiles": "CCOc1ccc(NC(=O)CCn2cnc3onc(-c4ccc(F)cc4)c3c2=O)cc1", "survival": "inactive: 54%"}, {"smiles": "CN1CCC(OC(=O)c2ccco2)CC1", "survival": "inactive: 90%"}, {"smiles": "O=S(=O)(c1ccccc1)c1nc(-c2cccs2)oc1SCc1ccccc1F", "survival": "inactive: 68%"}, {"smiles": "CCC(C)(C)C1CCc2c(sc(NC(=O)C3c4ccccc4Oc4ccccc43)c2C(N)=O)C1", "note": "(stereo unspecified)", "survival": "inactive: 123%"}, {"smiles": "Cc1ccccc1NC(=O)CCn1cnc2onc(-c3ccc(F)cc3)c2c1=O", "survival": "inactive: 109%"}, {"smiles": "COCCNC(=O)c1cn(Cc2cccc3ccccc23)nn1", "survival": "inactive: 89%"}, {"smiles": "CCCCC(CC)CNC(=O)C1CCN(S(=O)(=O)c2cccc3nsnc23)CC1", "note": "(stereo unspecified)", "survival": "inactive: 90%"}, {"smiles": "Cc1ccc(C)c(N2CCN(CCCNC(=O)Cn3ncc4c5ccccc5n(C)c4c3=O)CC2)c1", "survival": "inactive: 75%"}, {"smiles": "O=C(COc1ccccc1)Nc1ncn[nH]1", "survival": "inactive: 67%"}, {"smiles": "Cc1ccc(Nc2c3c(nc4nncn24)CCC3)cc1C", "survival": "inactive: 55%"}, {"smiles": "Cn1c(=O)cc(SCC(=O)N2CCN(c3ccc(F)cc3)CC2)c2ccc(Cl)cc21", "survival": "inactive: 93%"}, {"smiles": "CC(C)CN1CCc2nc(N3CCN(C)CC3)ncc2C1", "survival": "inactive: 83%"}, {"smiles": "O=C(CN1C(=O)COc2ccc(S(=O)(=O)N3CCOCC3)cc21)NCc1ccc(F)cc1", "survival": "inactive: 86%"}, {"smiles": "Cc1ccc(CN2CCSc3ccc(C(=O)N4CCN(c5cc(C)ccc5C)CC4)cc32)cc1", "survival": "active: 25%"}, {"smiles": "O=C(CSc1nc2c(oc3ccccc32)c(=O)n1-c1ccccc1F)Nc1ccccc1", "survival": "inactive: 112%"}, {"smiles": "c1ccc(-c2nc(N3CCCCC3)nc3ccccc23)cc1", "survival": "inactive: 72%"}, {"smiles": "COc1cccc(CNCC(=O)N2C(C)CCCC2C)c1", "note": "(stereo unspecified)", "survival": "inactive: 82%"}, {"smiles": "CCOC(=O)c1c(S(=O)(=O)N2CCCC(C(=O)N3CCN(c4cccc(C)c4C)CC3)C2)c(C)n(C)c1C", "note": "(stereo unspecified)", "survival": "inactive: 75%"}, {"smiles": "O=C(CSc1nnnn1Cc1ccccc1)NCCc1ccccc1", "survival": "inactive: 89%"}, {"smiles": "CC(=O)Nc1ccc(C(=O)CSc2nc3ccccc3n2CC(=O)N2CCCC2)cc1", "survival": "inactive: 92%"}, {"smiles": "COC(=O)c1c(SC)nc2ccccc2c1OCc1ccccc1C", "survival": "inactive: 105%"}, {"smiles": "COc1ccc(-c2ccc3c(N)c(C(=O)NCc4ccc(Cl)cc4)sc3n2)cc1", "survival": "inactive: 79%"}, {"smiles": "Cc1ccc(S(=O)(=O)N2CCNCC2)cc1", "survival": "inactive: 87%"}, {"smiles": "O=C(CCn1c(=O)c2ccccc2n(Cc2ccc(F)cc2Cl)c1=O)NCc1ccc2c(c1)OCO2", "survival": "inactive: 89%"}, {"smiles": "CCc1ccc(NC(=O)C2CCN(S(=O)(=O)c3ccc4[nH]c5c(c4c3)CCCCC5)CC2)cc1", "survival": "inactive: 67%"}, {"smiles": "CCn1cc(C(=O)N2CCN(c3ccccc3F)CC2)c(=O)c2cc(S(=O)(=O)N(C)C3CCCCC3)ccc21", "survival": "inactive: 79%"}, {"smiles": "CCOC(=O)c1c(C)oc2nc(C)nc(NCc3ccc(Cl)cc3)c12", "survival": "inactive: 91%"}, {"smiles": "COc1ccc(-c2cc3ccc(O)c(CN4CCOCC4)c3oc2=O)cc1", "survival": "inactive: 97%"}, {"smiles": "CC(=O)N1CCc2cc(Br)cc(S(=O)(=O)N3CCC(C(=O)N(C)c4cc(C)ccc4C)CC3)c21", "survival": "inactive: 94%"}, {"smiles": "Cc1cccc(NC(=O)CSc2nc(-c3ccco3)nc3cc(=O)[nH]n23)c1", "survival": "inactive: 80%"}, {"smiles": "COc1cc(NC(=O)c2ccccc2)ccc1NC(=O)c1cc2ccccc2o1", "survival": "inactive: 55%"}, {"smiles": "Cc1ccc(NC(=O)Cn2nnc(-c3nc(-c4ccncc4)no3)c2N)cc1", "survival": "inactive: 120%"}, {"smiles": "Cc1ccc(C(=O)O)cc1Nc1nc2ccccc2n2nnnc12", "survival": "inactive: 82%"}, {"smiles": "CCCOc1ccc(CNC(=O)C(CC)n2nc(C)c3sc4ccccc4c3c2=O)cc1", "note": "(stereo unspecified)", "survival": "inactive: 69%"}]}]}
